Some of the results follow. Values were computed here from the reads of four pooled replicates and scatter widely.
These sequences were tested against T1, Pho4 (S. cerevisiae) (UniProt P07270) (assay: relative binding free energy (BET-seq); higher = weaker binding). Details: reference: library average.
T1 sequence: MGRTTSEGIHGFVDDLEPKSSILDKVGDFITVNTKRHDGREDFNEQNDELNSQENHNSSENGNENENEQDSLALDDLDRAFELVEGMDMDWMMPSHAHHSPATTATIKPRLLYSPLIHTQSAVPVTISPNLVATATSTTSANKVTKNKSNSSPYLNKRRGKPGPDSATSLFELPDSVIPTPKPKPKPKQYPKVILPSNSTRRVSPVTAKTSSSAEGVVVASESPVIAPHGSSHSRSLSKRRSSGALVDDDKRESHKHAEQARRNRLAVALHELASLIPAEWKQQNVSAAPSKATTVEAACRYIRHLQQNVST

Row | Sequence | relative binding free energy [kcal/mol]
1 | ATGAACACGTGTAAAT | 0.4
2 | CGTGGCACGTGGGCGG | -0.37
3 | TGTCACACGTGGCGTG | -0.05
4 | TATTTCACGTGAAATA | 0.22
5 | ATGTTCACGTGTCGCG | 0.25
6 | ATGATCACGTGTGAGG | 0.24
7 | CGCTGCACGTGTGGGA | 0.01
8 | TTACTCACGTGAGGAT | 0.47
9 | CTTATCACGTGATTGT | 0.23
10 | GATGTCACGTGAGGCT | 0.44
11 | AATGCCACGTGATGTT | 0.23
12 | TGTAGCACGTGATCGG | 0.05
13 | TTTTCCACGTGTATGA | 0.06
14 | TCATTCACGTGGTGTC | 0.12
15 | GTTTTCACGTGACGTC | 0.49
16 | GAGGGCACGTGGTAGG | -0.07
17 | TCATGCACGTGGTGGG | -0.12
18 | CGTAACACGTGGTATT | -0.09
19 | GAGTACACGTGAGTTG | 0.35
20 | ATACGCACGTGGGGAG | -0.25
21 | GTTGACACGTGGTATT | -0.05

Row | Sequence | relative binding free energy [kcal/mol]
22 | CTTGCCACGTGGTTGG | -0.15
23 | AGTGGCACGTGCTGCG | -0.19
24 | GTTGACACGTGAGGGC | 0.24
25 | TGGCTCACGTGATAGG | 0.33
26 | TCGAGCACGTGTATGG | 0
27 | TGTGGCACGTGGGTTA | -0.17
28 | CGTGTCACGTGTTGCG | 0.03
29 | TTAGGCACGTGCGAGA | -0.13
30 | ACTGACACGTGGTGTG | -0.03
31 | GAGGTCACGTGCGTGA | 0.08
32 | TGGGTCACGTGTGCAC | 0.01
33 | TGGTCCACGTGAGGCT | 0.25
34 | ACTGTCACGTGGTTGT | 0.13
35 | TTGCACACGTGGCGTG | -0.05
36 | TATATCACGTGGCAGT | -0.06
37 | GGAGGCACGTGTTAAT | 0.01
38 | ATTGGCACGTGAGGCA | 0.04
39 | GATGACACGTGCGGTT | 0.03
40 | TTAGACACGTGATGGG | 0.29
41 | TGGGGCACGTGTCTGG | -0.16
42 | AGGCACACGTGTTGTG | 0.06

Row | Sequence | relative binding free energy [kcal/mol]
43 | TATGGCACGTGAGCTT | -0.01
44 | GAGAGCACGTGTTGAC | 0.23
45 | GGGAGCACGTGCACGG | -0.12
46 | CCGGGCACGTGGTGGA | -0.18
47 | TACTGCACGTGTGTTT | 0.06
48 | GGTCTCACGTGTAGTG | 0.25
49 | ATGAACACGTGTTTTA | -0.01
50 | TAGGACACGTGTAATG | 0.12
51 | TATATCACGTGATTAT | 0.17
52 | TTGGACACGTGGTGAT | -0.09
53 | TTTCTCACGTGTGGCG | 0.22
54 | CGTATCACGTGGTTGA | 0.09
55 | CATGACACGTGTTTGG | -0.08
56 | CATATCACGTGTGAGT | 0.19
57 | TGGCACACGTGTCTGT | 0.08
58 | GAACTCACGTGGGTTG | 0.14
59 | GGTTTCACGTGAGACG | 0.23
60 | AAGGACACGTGAAAGG | 0.27
61 | AAGGGCACGTGTGTTG | -0.12
62 | GTGGCCACGTGGTCAG | 0.04
63 | TGTCTCACGTGTTGGA | 0.19

Reference: the BET-seq Pho4 binding data (Le et al. 2018)
